PMC11022047 (iScience, 2024)

Biological target: T1, biotinylated human USP18 (human, UniProt Q9UMW8 16-372, biotin (site and chemistry not stated))
T1 sequence (looked up): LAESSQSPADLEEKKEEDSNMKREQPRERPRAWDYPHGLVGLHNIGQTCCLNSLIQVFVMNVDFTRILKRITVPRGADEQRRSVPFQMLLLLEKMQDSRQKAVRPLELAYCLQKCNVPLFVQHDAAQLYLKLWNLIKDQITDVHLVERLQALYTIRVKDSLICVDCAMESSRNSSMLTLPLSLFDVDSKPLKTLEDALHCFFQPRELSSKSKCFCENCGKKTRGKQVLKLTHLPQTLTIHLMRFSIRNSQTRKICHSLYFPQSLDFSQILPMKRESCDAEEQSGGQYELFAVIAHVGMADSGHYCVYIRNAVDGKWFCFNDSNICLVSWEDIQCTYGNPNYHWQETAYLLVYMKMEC
Test: BLI

Kd: 40 nM
B1: pro-human ISG15 ([…]) C78S (natural protein)
chain: not shown
